{
  "source": "the RNAGym collection of RNA variant scans (doi:10.1093/nar/gkz1192)",
  "parents": {"B1": {"name": "CPEB3 Ribozyme (parent)", "chain": "UAACAGGGGGCCACAGCAGAAGCGUUCACGUCGCAGCCCCUGUCAGAUUCUGGUGAAUCUGCGAAUUCUGCUGUAUAUCUC"}},
  "note": "The source gives no read counts; variants with many changes may rest on few reads.",
  "data": [
    {"variants_of": "B1", "experiment": "self-cleavage, relative activity (ratio to wild type); higher = more cleavage; in vitro, sequencing", "summary_of_the_method": "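Relative activity compares each variant's cleaved/total read fraction with that of the unmutated ribozyme. To get these fractions, barcoded CPEB3 ribozyme libraries from rounds of error-prone PCR were transcribed with T7 RNA polymerase for 5 hours at 37°C and then given 15 min of DNase I treatment before EDTA was added. The RNAs were reverse transcribed with template switching and sequenced on Illumina, and DNA sequencing linked barcodes to variants. A minimum of 5 reads applied, and three batches were averaged.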", "values": [
      {"variant": "UAACAGGGGGCCACUGCAGAAGCGUUCACGUCGCAGCCCCUGUCUGAUACUGGUGAAUCUGCGGACUCUGCUGCGUAUCUC", "self-cleavage": 0.04},
      {"variant": "UAACAGGGGGCCACUGCAGAAGCGUUCACGUCGCAGCCCCUGUCAGGCUCUGGUAAAUCUGCGAAUUCUGCUGUAUAUCUC", "self-cleavage": 0.11},
      {"variant": "UAACAGGGGGCCACUGCAGAAGCGUUCACGUCGCAGCCCCUGUCAGGUUCUGGUGAAUCUGCGAAUUCUGCUGCAUAUUUC", "self-cleavage": 0.78},
      {"variant": "UAACAGGGGGCCACUGCAGAAGCGUUCACGUCGCAGCCCCUGUCAGUUUCUGGUGGAUCUGCGAAUUCUGCUGUAUGUCUC", "self-cleavage": 0.18},
      {"variant": "UAACAGGGGGCCACUGCAGAAGCGUUCACGUCGCAGCCCCUGUCAGAUUCUGGUGGAUCUGCGGAUUCAGCUGUAUAUCUC", "self-cleavage": 0.1},
      {"variant": "UAACAGGGGGCCACUGCAGAAGCGUUCACGUCGCAGCCCCUGUCAGAUUCUGGUGUAUCUGCGAAUACUGCUGUAUAUCUC", "self-cleavage": 0.15},
      {"variant": "UAACAGGGGGCCACUGCAGAAGCGUUCACGUCGCAGCCCCUGUCAGAUUCUGGUGAGUCUGCGGAUUCUGCUGUAUAUCUC", "self-cleavage": 0.32},
      {"variant": "UAACAGGGGGCCACUGCAGAAGCGUUCACGUCGCAGCCCCUGUCAGAUUCUGGUGAGUCUGCGGAUUCCGCCGUAUAUCUC", "self-cleavage": 0.21},
      {"variant": "UAACAGGGGGCCACUGCAGAAGCGUUCACGUCGCAGCCCCUGUCAGAUUCUGGUGAGUCAGCGAAUUCUGCUGUAUAUCUC", "self-cleavage": 0.15},
      {"variant": "UAACAGGGGGCCACUGCAGAAGCGUUCACGUCGCAGCCCCUGUCAGAUUCUGGUGAGUCUGCGAAUUCUGCAGUAUAUCUC", "self-cleavage": 0.91},
      {"variant": "UAACAGGGGGCCACUGCAGAAGCGUUCACGUCGCAGCCCCUGUCAGAUUCUGGUGAAUCUGCGGAUUCUGCUGUGUAUCUC", "self-cleavage": 0.26},
      {"variant": "UAACAGGGGGCCACUGCAGAAGCGUUCACGUCGCAGCCCCUGUCAGAUUCUGGUGAAUCUGCGUGUUCUGCAGUAUACCUC", "self-cleavage": 0.08},
      {"variant": "UAACAGGGGGCCACUGCAGAAGCGUUCACGUCGCAGCCCCUGUCAGAUUCUGGUGAAUCUGCGUAUCCCGCUGUAUAUCUC", "self-cleavage": 0.15},
      {"variant": "UAACAGGGGGCCACUGCAGAAGCGUUCACGUCGCAGCCCCUGUCAGAUUCUGGUGAAUCUGCGUAUUCUGCCGCAUAUCUC", "self-cleavage": 0.11},
      {"variant": "UAACAGGGGGCCACUGCAGAAGCGUUCACGUCGCAGCCCCUGUCAGAUUCUGGUGAAUCUGCGUAUUCUGCUGUAUACCUC", "self-cleavage": 0.25},
      {"variant": "UAACAGGGGGCCACUGCAGAAGCGUUCACGUCGCAGCCCCUGUCAGAUUCUGGUGAAUCUGCGAUUUCUGCCGUAUACCUC", "self-cleavage": 0.43},
      {"variant": "UAACAGGGGGCCACUGCAGAAGCGUUCACGUCGCAGCCCCUGUCAGAUUCUGGUGAAUCUGCGAAUUCUGCUGUAUGCCUC", "self-cleavage": 1.1},
      {"variant": "UAACAGGGGGCCACUGAAGAAGCGUUCACGUCGCGGCCCCAAUCAGAUUCUGGUGAAUCUGCGAAUUCAGCUGUACAUCUC", "self-cleavage": 0.05},
      {"variant": "UAACAGGGGGCCACUGUAGAGGCGUUCACGCCGCAGCCCCUGUCAGAUUCUGGUGAAUCUGCGAAUUCUGCUGUAUAUCUC", "self-cleavage": 0.55},
      {"variant": "UAACAGGGGGCCACUGUAGAAGCGUUCACGUCGUAGCCCCUGUCAGAUUCAGGUGAAUCUGCGAAUUCUGCUGUAUGUCUC", "self-cleavage": 0.01},
      {"variant": "UAACAGGGGGCCACUGUAGAAGCGUUCACGUCGCAGCCCCUGACAGAUUCUGGUGAAUCUGCGAAUUCUGCUGUAUAUCUC", "self-cleavage": 0.34},
      {"variant": "UAACAGGGGGCCACUGCAGAAGAGUUCACGGCGCAGCCCCUGUCAGAUUCUGGUGAAUCUGCGAAUUCUGCUGUAUAUCUC", "self-cleavage": 0.45},
      {"variant": "UAACAGGGGGCCACUGCAGAAGAGUUCACGUCGCAGCCCCUGUCAGAUUCUGGUGAAUCUGCGAAUCCUGCUGUAUAUCUC", "self-cleavage": 0.12},
      {"variant": "UAACAGGGGGCCACUGCAGAAGGGCUCACGUCGCAGCCCCUGUCAGAUUCUGGUGAAUCUGCGAAUUCUGCUGUAUAUCCC", "self-cleavage": 0.08},
      {"variant": "UAACAGGGGGCCACUGCAGAAGGGUUCACGUCGCAGCCCCUGUCAGACUCAGGUGAAUCUGCGAAUUCUGCUGUAUAUCUC", "self-cleavage": 0.19},
      {"variant": "UAACAGGGGGCCACUGCAGAAGGGUUCACGUCGCAGCCCCUGUCAGAUUCCGGUGAGUCUGCGCAUUCUGCUGUAUAUCUC", "self-cleavage": 0.08},
      {"variant": "UAACAGGGGGCCACUGCAGAAGUGUUCACGUCGCAGCCCCUGUCAGAUCCUGGUGAAUCUGCGAAUUCUGCUGUAUAUCUC", "self-cleavage": 0.18},
      {"variant": "UAACAGGGGGCCACUGCAGAAGCGUUAACGUCGCCGCCCCAGUCAGAUUCUGGUGAAUCUGCGAAUUCUGCUGUAUAUAUC", "self-cleavage": 0.31},
      {"variant": "UAACAGGGGGCCACUGCAGAAGCGUUUACGUCGCAGCCCCUGUCGGAUUCGGGUGAAUCUGCAAAUUCUGCUGUAUAUCUC", "self-cleavage": 0.08},
      {"variant": "UAACAGGGGGCCACUGCAGAAGCGUUCAAGUCGCAGCCCCUGUCUGAUUCUGGUGAAUCUCCGGAUUCUGCUGCAUAUCUC", "self-cleavage": 0.07},
      {"variant": "UAACAGGGGGCCACUGCAGAAGCGUUCAGGACGCAGCCCCUGUCAGAUUCUGGUGAAUCUGCGAGUUCUGCUGUAUAUCUC", "self-cleavage": 0.18},
      {"variant": "UAACAGGGGGCCACUGCAGAAGCGUUCAGGUCGCAGCCCCUGUCAGAUUCAGGUGGAUCUGCGAACUCUGCUGUAUAUCUC", "self-cleavage": 0.07},
      {"variant": "UAACAGGGGGCCACUGCAGAAGCGUUCAUGUCGCAGCCCCUGUCAGAUUCUGGUGAAUCCGCGAAUUCUGCCGUAUAACUC", "self-cleavage": 0.04},
      {"variant": "UAACAGGGGGCCACUGCAGAAGCGUUCAUGUCGCAGCCCCUGUCAGAUUCUGGUGAAUCUGCGAAUCCUGCCGUAUAUCUC", "self-cleavage": 0.1}
    ]}
  ]
}
